The campaign covered roughly 340,000 compounds. About 12,000 (3.5%) were called active. Inconclusive results, whose numbers are uncertain, are shown with a selection of clear calls. Calls come from the whole dose curve; as a rule, active = well fitted inhibition curve with a large enough effect; inconclusive = small, poorly fitted or top-dose-only effect, or another doubt; inactive = no such curve, though single readings can be large or run the other way. Potencies of inconclusive entries are left out as doubtful fits.
Assay: qHTS Assay for Inhibitors of Hepatitis C Virus (HCV)
Details: Huh7.5.1 HCVcc-Cre (HCVcc is cell-culture hepatitis C virus) infection, luciferase reporter, 44 h; series mostly up to 41.8 µM
In short: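 Cells seeded at 1,000/well and cultured 4 h, then compounds added followed by HCVcc-Cre virus (~0.5 moi). After 44 h further culture, luciferase substrate was added, plates held 15 min at room temperature, and luminescence read for 15 sec.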
Potency is the fitted concentration of half-maximal effect; tags give direction and shape of the fitted curve.

| SMILES | Potency |
| --- | --- |
| Nc1ncnc2c1ncn2[C@@H]1O[C@H](CNCc2c(OCc3ccccc3F)ccc3ccccc23)[C@@H](O)[C@H]1O | inconclusive [inhibitor, partial curve] |
| COc1cc(OC)cc(-c2oc3cccnc3c2C#CCCO)c1 | active: 7.08 µM |
| CCOc1ccccc1-n1c(=S)sc2c(=O)n(-c3ccccc3)c(=S)[nH]c21 | inconclusive [inhibitor, single point] |
| COc1ccc(NS(=O)(=O)c2ccc(NC(=O)C3CC3)cc2)cc1 | active: 10 µM |
| Cc1ccc(CNC(=O)c2ccc(N3CCC4(CC3)CC(c3cccc(Br)c3)=NO4)c(NC(=O)c3ccc(Cl)c([N+](=O)[O-])c3)c2)cc1 | inactive |
| CCNS(=O)(=O)c1ccc(CCC(=O)N2CCN(c3cccc(Cl)c3)CC2)cc1 | inconclusive [inhibitor, single point] |
| COc1ccc(NC(=O)CCN2CCCC2)c(OC)c1 | inactive |
| O=C(NNC(=O)c1sccc1-n1cccc1)c1ccccc1 | inconclusive [inhibitor, single point] |
| Oc1ccc(Br)cc1/C=N/n1cnc2ccccc21 | inactive |
| O=C(CC1C(=O)Nc2ccccc2N1CC(=O)N1CCCC1)Nc1ccc(Br)cc1 (stereo not given) | inconclusive [inhibitor, partial curve] |
| CCC(=O)Nc1cc2c(cc1Cl)-c1ccccc1C2 | inconclusive [inhibitor, single point] |
| CCSc1ccccc1C(=O)Nc1cc(OC)c(OC)c(OC)c1 | inconclusive [inhibitor, single point] |
| COc1ccc(C(=O)NCCc2ccc(C(F)(F)F)cc2)cc1S(=O)(=O)N1CCOCC1 | inconclusive [inhibitor, partial curve] |
| COc1ccc(NS(=O)(=O)c2ccc3c(c2)Cc2ccccc2-3)cn1 | active: 2.82 µM |
| COc1cc2c3nnc(-c4ccccc4)c-3cn(Cc3ccccc3F)c2cc1OC | inconclusive [inhibitor, single point] |
| Cc1ccc(C)c(N2CCN(S(=O)(=O)CC34CCC(CC3=O)C4(C)C)CC2)c1 (stereo not given) | inconclusive [inhibitor, single point] |
| CCOC(=O)c1c(-c2ccccc2)oc2ccc(OCC(N)=O)cc12 | active: 10 µM |
| CCOC(=O)N1CCC(NC(=O)c2cccn3c(=O)c4cc(Br)ccc4nc23)CC1 | inactive |
| CCN1/C(=C\C(=S)Nc2ccccc2)Sc2ccccc21 | active: 6.31 µM |
| C=CCN(C(=O)C1CC(=O)N(C2CCCC2)C1)c1nc(-c2ccc(S(C)(=O)=O)cc2)cs1 (stereo not given) | inconclusive [inhibitor, single point] |
| CCOC(=O)c1[nH]c2ccccc2c1NC(=O)NC1CCCCC1 | inconclusive [inhibitor, partial curve] |
| c1ccc(C2=Nn3c(nnc3-c3n[nH]c4c3CCC4)SC2)cc1 | inconclusive [inhibitor, single point] |
| COC(=O)c1nn(-c2ccc(Oc3ccccc3)cc2)c(=O)cc1O | inactive |
| O=C(NCCCCNC(=O)c1ccc(Br)cc1)c1ccc(Br)cc1 | inactive |

| SMILES | Potency |
| --- | --- |
| O=C(COC(=O)/C=C/c1cccc(C(F)(F)F)c1)NCc1ccco1 | inactive |
| O=C(N/N=C\c1ccc([N+](=O)[O-])o1)c1cncc(Br)c1 | active: 22.4 µM |
| COc1ccc2cc(CCNC(=O)c3ccc(Br)o3)c(=O)[nH]c2c1 | inconclusive [inhibitor, single point] |
| CC(=O)Nc1sc2c(c1C#N)CCCC2 | active: 11.2 µM |
| COC(=O)c1c(NC(=O)CCc2ccc(C)o2)sc(C)c1C | inconclusive [inhibitor, partial curve] |
| Cc1ccc(S(=O)(=O)N2CCOCC2)cc1NC(=O)COC(=O)CSc1ccc(Br)cc1C | inactive |
| CCc1nc(NCCN)c(C#N)c2c1CSC(C)(C)C2 | inconclusive [inhibitor, single point] |
| COC(=O)/C=C1\C(=O)N(c2nc3ccccc3s2)C(=S)N1c1ccc(F)cc1 | inconclusive [inhibitor, single point] |
| Cc1cc(N2CCN(C)CC2)nc2ccc(NC(=S)N3CCN(c4ccc(F)cc4)CC3)cc12 | active: 10 µM |
| CC(C)(C)NC(=O)Cc1ccc(S(=O)(=O)N2CCCC2)s1 | inactive |
| COc1ccc(-c2cn[nH]c2-c2ccc(OCc3ccc([N+](=O)[O-])cc3)cc2O)cc1 | inconclusive [inhibitor, single point] |
| CCc1nc(SCC(=O)Nc2cccc3ccccc23)[nH]c(=O)c1C | inactive |
| Nc1nc(CCl)nc(Nc2ccccc2)n1 | inconclusive [inhibitor, single point] |
| c1cncc(Nc2nc(-c3cccs3)cs2)c1 | active: 3.16 µM |
| CN(C)S(=O)(=O)c1ccc(N2CCCC2)c(C(=O)N2CCC(C(N)=O)CC2)c1 | inconclusive [inhibitor, single point] |
| Cc1ccc2nc(Cl)c3cc(C(=O)NCCCN4CCCC4)sc3c2c1 | active: 8.91 µM |
| COc1cccc(-c2cc(C(=O)NCCCN3CCOCC3)no2)c1 | inconclusive [inhibitor, single point] |
| O=C(c1ccc([N+](=O)[O-])cc1)N1CCN(c2cccc3[nH]ccc23)CC1 | inconclusive [inhibitor, single point] |
| c1ccc(-c2nc(-c3cccs3)[nH]c2-c2ccccc2)cc1 | inconclusive [inhibitor, single point] |
| C=C(C)CN(CC)C(=O)CSc1ccc(S(=O)(=O)N2CCN(Cc3ccccc3)CC2)cn1 | inconclusive [inhibitor, single point] |
| Cc1ccccc1CSCC(=O)NC(=O)NC(C)(C)C | inconclusive [inhibitor, single point] |
| CC(C)(C)c1nc(S(=O)(=O)c2ccc(Cl)cc2)c(N2CCOCC2)o1 | inactive |
| N#CCc1nc2ccc(S(=O)(=O)N3CCOCC3)cc2s1 | inconclusive [inhibitor, partial curve] |
| Cc1ccc(OCCCCn2cnc3ccccc32)cc1 | inconclusive [inhibitor, single point] |

| SMILES | Potency |
| --- | --- |
| O=C(Cc1ccccc1)Nc1nonc1NC(=O)c1ccccc1 | inactive |
| CCc1cccc(C)c1NC(=O)c1ccc(CN2CCc3ccccc3C2)cc1 | inconclusive [inhibitor, single point] |
| O=C(Cc1ccccc1)Nn1c(-c2ccccc2)nc2ccccc2c1=O | inactive |
| CC(C)CC(=O)NC(=S)NNC(=O)c1ccc([N+](=O)[O-])cc1 | inactive |
| CCn1c(=O)n(CC)c2cc(N3CCCC3)c(NC(=O)c3ccc(F)cc3)cc21 | inconclusive [inhibitor, single point] |
| CN(C)c1nc(OCCOC(=O)Nc2ccc(Cl)cc2Cl)nc(N(C)C)n1 | inconclusive [inhibitor, partial curve] |
| CCC(C)(C)NC(=O)C1CCCN(S(=O)(=O)c2ccc3c(c2)CC(C)N3C(=O)C2CC2)C1 (stereo not given) | inconclusive [inhibitor, partial curve] |
| Cc1ccccc1NS(=O)(=O)c1cc(C(=O)NCCC2=CCCCC2)ccc1Cl | inconclusive [inhibitor, partial curve] |
| Nc1cc(C(=O)Nc2ccc(Cl)cc2)ccc1N1CC2CC(C1)c1cccc(=O)n1C2 (stereo not given) | inconclusive [inhibitor, single point] |
| COC(=O)C1=CN(c2cccc(Cl)c2)C=C(C(=O)OC)C1c1cccc(OC)c1 | inconclusive [inhibitor, single point] |
| Clc1cccc(CN2CCc3c([nH]c4ccccc34)C2)c1 | inconclusive [inhibitor, single point] |
| Cc1ccc(CN2CC(C(=O)N3CCN(c4ccccc4O)CC3)CC2=O)cc1 (stereo not given) | inconclusive [inhibitor, single point] |
| O=C(CCNS(=O)(=O)c1cccc2nsnc12)NC1CCCc2ccccc21 (stereo not given) | inconclusive [inhibitor, full curve, poor fit] |
| C=CCOc1ccccc1CNc1ccc2c(c1)OCCO2 | inconclusive [inhibitor, single point] |
| COc1ccccc1CCNC(=O)C(=O)NCCC1CCCCN1S(=O)(=O)c1ccccc1 (stereo not given) | inconclusive [inhibitor, single point] |
| N#CC1=C2N=C(N)c3ccccc3N2C2=C(C(=O)CCC2)C1c1ccc(Cl)cc1 (stereo not given) | inconclusive [inhibitor, single point] |
| CCOC(=O)N1CCC(N2C(=O)c3ccc(C(=O)Nc4ccc(OC)c(OC)c4)cc3C2=O)CC1 | inactive |
| N/C(COc1cc(Cl)cc(Cl)c1)=N\O | inactive |
| CCOC(=O)Cc1csc(NC(=O)c2ccc(C)o2)n1 | inconclusive [inhibitor, single point] |
| CCOC(=O)c1c(CC(C)C)csc1/N=C/C1=C(O)CCCC1=O | inconclusive [inhibitor, single point] |
| COc1ccccc1N1CCN(C(=O)C2CCN(C(=O)c3ccc(C(C)(C)C)cc3)CC2)CC1 | inconclusive [inhibitor, partial curve] |
| Cc1cccc(CNC(=O)c2ccc3nc(Cc4ccccc4F)oc3c2)n1 | inactive |

Reference: PubChem BioAssay AID651820 (National Center for Advancing Translational Sciences (NCATS), 2012)
